Inconclusive results, whose numbers are uncertain, are shown with a selection of clear calls. Potencies beside an inconclusive call are fits to weak or partial responses and may not hold up. Activity calls are given as the source filed them. Unless noted, calls follow the shape of the dose curve; as a rule, active = well fitted cell-killing curve with a large enough effect in the repeat runs; inconclusive = weak or mixed curves, or effect the other way; inactive = flat fitted curve, though single readings scatter.
Assay: qHTS assay to identify small molecule antagonists of the TGF-beta/Smad signaling pathway (AID 1346924; active = well fitted inhibition curve with a large enough effect in the signal ratio in the repeat runs, not every such curve was filed as active; inconclusive = weak or mixed curves; the % refers to the signal ratio)
Conditions: SBE-bla HEK293T, TGF-beta/Smad reporter, beta-lactamase ratio; activity, negative = inhibition: at 76.8 µM (top of the series) unless noted
Procedure, shortened: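 SBE-bla HEK 293T cells were plated overnight, then received compound in DMSO plus TGF-beta1 (added as a 0.25 ng/mL solution) and were incubated 5 h at 37 C. Beta-lactamase reporter activity was read after 2 h at room temperature with LiveBLAzer B/G FRET substrate (ex 405, em 460/530 nm).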
Potency is read from the fitted curve at half-maximal effect; tags tell the direction and shape of the fitted curve or compound fluorescence and quenching.

Row | SMILES | Potency | activity, negative = inhibition
1 | CN(CCOc1ccc(CC2SC(=O)NC2=O)cc1)c1ccccn1 (configuration not stated) | inconclusive: 24.4 µM [fluorescent, partial curve] | 
2 | Brc1c2ccccc2cc2ccccc12 |  | inconclusive: -8.44%
3 | O=C1CCCc2c1cc1ccc3cccc4ccc2c1c34 | inconclusive: 49.6 µM [fluorescent, partial curve] | 
4 | C[C@]1(Cn2ccnn2)[C@H](C(=O)O)N2C(=O)C[C@H]2S1(=O)=O |  | inconclusive: 2% [at 35.3 µM]
5 | O=C(OCC1CO1)C1CCCCC1C(=O)OCC1CO1 (configuration not stated) | inconclusive: 49.1 µM [fluorescent, partial curve] | 
6 | CN1CCN(Cc2cc(-c3ccc4[nH]c(=O)oc4c3)co2)[C@@H](c2ccc(F)cc2)C1 |  | inconclusive: 6.07%
7 | CCCCCCC1CCCC(=O)O1 (configuration not stated) | inconclusive: 21.9 µM [rising, partial curve, poor fit] | 
8 | Clc1ccc(Sc2cc(Cl)c(Cl)cc2Cl)cc1 |  | inconclusive: -28.9%
9 | NC1CCN(c2nc3c(cc2F)c(=O)c(C(=O)O)cn3-c2ccc(F)cc2F)C1 (configuration not stated) |  | inconclusive: 12.6% [at 35.3 µM]
10 | Cc1ccc(-n2nc(C(C)(C)C)cc2NC(=O)Nc2ccc(OCCN3CCOCC3)c3ccccc23)cc1 | inconclusive: 23.9 µM [rising, partial curve, poor fit] | 
11 | CCc1cc2cc(OC)c(OC)cc2c(Cc2ccccc2)n1 |  | inconclusive: -0.769% [at 35.3 µM]
12 | CCC1CCC(CCC(=O)O)C1 (configuration not stated) |  | inconclusive: -2.62%
13 | CCCCCC(C)OC(=O)COc1ccc(Cl)c2cccnc12 (configuration not stated) |  | inconclusive: -3.3%
14 | O=C(Nc1ccccc1)Nc1ccccc1 |  | inconclusive: -9.01%
15 | CCCCC(CC)COC(=O)CCCCCCCC(=O)OCC(CC)CCCC (configuration not stated) |  | inconclusive: -6.55%

Assay: Human pregnane X receptor (PXR) small molecule agonists, qHTS cell viability counter screen (AID 1346977); also: nearly all actives have a fitted effect of over 50% in size; as to activity change, negative = cytotoxicity: % is scaled to controls: 0 for no effect and ±100 for the full control effect
Conditions: PXR-Luc HepG2 viability, CellTiter-Fluor, 24 h; series mostly up to 92.4 µM; activity change, negative = cytotoxicity: at the top concentration
Procedure, shortened: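 Fluorescence read-out (CellTiter-Fluor) of viability in PXR-Luc HepG2 cells, multiplexed with the luciferase agonist read. Compounds in DMSO added after 5hr plating; 24hr total exposure at 37C, 5% CO2.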

Row | SMILES | Potency | activity change, negative = cytotoxicity
16 | CN(CCOc1ccc(CC2SC(=O)NC2=O)cc1)c1ccccn1 (configuration not stated) | inconclusive: 43 µM [cytotoxic, partial curve, poor fit] | 
17 | CC(C)CC(=O)OCc1ccccc1 | inconclusive: 68.6 µM [rising, partial curve, poor fit] | 
18 | O=C(c1ccc(O)cc1)c1ccc(Cl)cc1 | inconclusive: 70.1 µM [cytotoxic, single point] | 
19 | CC1=C(/C=C/C(C)=C\C=C\C(C)=C\C(=O)O)C(C)(C)CCC1 | inconclusive: 68.6 µM [cytotoxic, single point] | 
20 | O=C(Nc1ccccc1)c1ccccc1O | inconclusive: 68.6 µM [cytotoxic, single point] | 
21 | CCCOc1ccc2c(c1)CC[C@@H]1[C@@H]2CC[C@]2(C)C(OC)CC[C@@H]12 (some centres not stated) |  | inactive: 3.93% [at 42.5 µM]
22 | CCCCC(CC)COC(=O)CCCCCCCC(=O)OCC(CC)CCCC (configuration not stated) | inconclusive: 70.8 µM [cytotoxic, single point] | 
